For this assay, the target named is T1, recombinant HERC2 ZZ domain (amino acids 2702–2755), WT (human, UniProt O95714 2702-2755).
T1 sequence: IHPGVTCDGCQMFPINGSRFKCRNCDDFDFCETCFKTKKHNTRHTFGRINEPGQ
Kind of assay: ITC. (Isothermal titration calorimetry measures the heat released or taken up as one component is titrated into another.)

The results in this text go back to publication PMC3328386 (The Journal of Cell Biology, 2012).

One may read the stoichiometry N as the number of molecules, sites or subunits per partner or assembly.

B1: recombinant SUMO1 (natural protein)
chain: not shown
In the case of B1, the “stoichiometry N” value was 1.
